{
  "source": "PubChem BioAssay AID488969",
  "about": "(Vanderbilt High Throughput Screening Facility, 2010)",
  "note": "Over roughly 110,000 compounds, “z-score” has its median near -0.1; the highest 2% begin near 2. The list shows a part of the results.",
  "data": [
    {"molecular_target": "Metabotropic glutamate receptor 8 (Rattus norvegicus) (UniProt P70579)", "sequence (P70579 whole entry, looked up)": "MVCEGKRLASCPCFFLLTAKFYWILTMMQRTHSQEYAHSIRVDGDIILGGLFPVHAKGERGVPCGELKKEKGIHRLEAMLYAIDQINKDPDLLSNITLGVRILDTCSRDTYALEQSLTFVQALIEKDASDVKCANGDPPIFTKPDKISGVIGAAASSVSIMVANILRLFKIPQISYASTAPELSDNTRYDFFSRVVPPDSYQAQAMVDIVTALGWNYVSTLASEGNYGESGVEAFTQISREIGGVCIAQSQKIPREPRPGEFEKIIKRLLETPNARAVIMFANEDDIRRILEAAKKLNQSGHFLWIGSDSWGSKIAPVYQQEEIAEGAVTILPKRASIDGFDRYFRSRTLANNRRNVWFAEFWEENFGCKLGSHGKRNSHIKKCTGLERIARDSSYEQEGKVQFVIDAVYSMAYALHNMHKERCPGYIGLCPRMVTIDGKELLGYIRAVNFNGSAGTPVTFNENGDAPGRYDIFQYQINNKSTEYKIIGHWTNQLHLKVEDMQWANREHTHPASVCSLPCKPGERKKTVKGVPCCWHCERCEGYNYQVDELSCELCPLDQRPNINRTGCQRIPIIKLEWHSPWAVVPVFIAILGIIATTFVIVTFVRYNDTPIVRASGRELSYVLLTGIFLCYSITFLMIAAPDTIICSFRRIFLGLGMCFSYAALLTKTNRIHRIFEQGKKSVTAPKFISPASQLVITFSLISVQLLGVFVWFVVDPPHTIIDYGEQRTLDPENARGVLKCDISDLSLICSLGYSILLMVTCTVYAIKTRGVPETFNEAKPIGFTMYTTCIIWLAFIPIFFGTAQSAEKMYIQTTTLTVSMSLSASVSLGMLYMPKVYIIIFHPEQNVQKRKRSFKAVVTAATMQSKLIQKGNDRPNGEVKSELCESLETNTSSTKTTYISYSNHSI", "assay": "rat mGluR8 modulators via GIRK flux, primary screen, cell-based, thallium flux, HTS (AID 488969)", "settings": "HEK293 rat mGluR8, GIRK (G protein-gated inwardly rectifying potassium channel) thallium flux, FluoZin2; at 10 µM; stronger effect = higher value; submaximal glutamate (EC20) added with thallium", "values": [
      {"smiles": "Cc1ccc(NC(=O)NC2CCCN2S(=O)(=O)c2ccc(Cl)cc2)cc1", "note": "(centres undefined)", "z-score": -0.69},
      {"smiles": "CC(C)CNC(=O)C(=O)NC1CCCC1", "z-score": -0.0648},
      {"smiles": "CCOC(=O)c1oc2ccccc2c1NC(=O)c1ccc(S(=O)(=O)N2CCCC2)cc1", "z-score": -0.0924},
      {"smiles": "Cc1nnc(NC(=O)c2ccc(S(=O)(=O)N(C)Cc3ccccc3)cc2)o1", "z-score": 0.37},
      {"smiles": "N#Cc1ccc(CSc2nnc(Nc3ccccc3)s2)cc1", "z-score": 1.18},
      {"smiles": "COc1cccc(C2CC(C(F)(F)F)n3ncc(C(=O)NCC4CCCO4)c3N2)c1", "note": "(centres undefined)", "z-score": -0.341},
      {"smiles": "Cc1ccc(CNC(=O)Cn2c(=O)c3sccc3n(Cc3cccc([N+](=O)[O-])c3)c2=O)cc1", "z-score": -0.301},
      {"smiles": "O=c1nc2s/c(=C\\c3ccc(-c4ccccc4[N+](=O)[O-])o3)c(=O)n2nc1-c1ccccc1", "z-score": 0.305},
      {"smiles": "Cn1c(=O)c2nc(Cl)c(-c3ccccc3)nc2n(C)c1=O", "z-score": -0.327},
      {"smiles": "c1ccc(-c2ccc(OCCOCCn3cncn3)cc2)cc1", "z-score": 0.335},
      {"smiles": "Oc1c(Br)cc(Br)cc1C=Nc1ccc2c(c1)OCO2", "z-score": -0.769},
      {"smiles": "CC(=O)Oc1ccc2c(C)cc(=O)oc2c1C(=O)c1ccccc1", "z-score": -0.483},
      {"smiles": "C=CCOc1c(Br)cc(CNc2ccc(NC(=O)C(C)C)c(OC)c2)cc1OC", "z-score": -0.274},
      {"smiles": "CC(C)c1ccc(/C=C/C(=O)N2CCc3ccccc3C2)cc1", "z-score": -0.0752},
      {"smiles": "COc1ccc(-c2nn3c(-c4ccccc4)nnc3s2)cc1", "z-score": -1.28},
      {"smiles": "CC(Cl)C(=O)Nc1ncc(C(F)(F)F)cc1Cl", "note": "(centres undefined)", "z-score": -0.166},
      {"smiles": "O=C(NCC(c1cccs1)N1CCOCC1)c1cc([N+](=O)[O-])cc([N+](=O)[O-])c1", "note": "(centres undefined)", "z-score": -0.338},
      {"smiles": "O=C(CSCc1cccc(Br)c1)NC1CC1", "z-score": 0.485},
      {"smiles": "Cc1noc(C)c1S(=O)(=O)N1CCC(C(=O)NC2CCN(Cc3ccccc3)CC2)CC1", "z-score": -0.163},
      {"smiles": "CSCCC(NS(=O)(=O)c1ccc(Cl)cc1)C(=O)OCc1cccc(Cl)c1", "note": "(centres undefined)", "z-score": 0.421},
      {"smiles": "CC(C)[C@H](NS(=O)(=O)c1ccc2c(c1)OCCO2)C(=O)OCC(=O)Nc1ccccc1Cl", "z-score": -0.251},
      {"smiles": "Cc1ccc(S(=O)(=O)N2CCOCC2)cc1C(=O)NCc1cccnc1", "z-score": 0.156},
      {"smiles": "Cc1cc(C)nc(N/N=C/c2ccccc2OCc2ccc([N+](=O)[O-])cc2)n1", "z-score": 0.257},
      {"smiles": "Cc1ccc(C(=O)CSc2nc(C)cc(C)c2C(N)=O)cc1", "z-score": 0.0818},
      {"smiles": "CC1(C)CC(=O)C2=C(C1)OC(N)=C([N+](=O)[O-])C2c1cccs1", "note": "(centres undefined)", "z-score": -0.0878},
      {"smiles": "O=C1C(Cl)=C(NCC2CCCO2)C(=O)N1c1cccc(Cl)c1Cl", "note": "(centres undefined)", "z-score": -0.317},
      {"smiles": "CC(=O)c1cccc(NC(=O)c2cc(-n3cnnc3)ccc2Cl)c1", "z-score": -0.0767},
      {"smiles": "COc1ccc(CN2CCOCC2)cc1OC", "z-score": 0.117},
      {"smiles": "CCNS(=O)(=O)c1c(C)cc(N2CCCC2=O)cc1C", "z-score": -0.237},
      {"smiles": "O=c1c(Cc2ccc(F)cc2)c(O)ccn1C1CC1", "z-score": -0.00693},
      {"smiles": "CCN(CC)c1ccc(/C=N/Nc2ccccc2)c(O)c1", "z-score": 0.14},
      {"smiles": "O=C(Cc1ccccc1)NC(=S)Nc1ccc(N2CCCCC2)cc1", "z-score": 0.136},
      {"smiles": "O=C(Oc1coc(CSc2nnc(NC(=O)c3cccs3)s2)cc1=O)c1ccccc1", "z-score": -0.179},
      {"smiles": "COc1cc(C(=O)Nc2nc(-c3ccc(C)cc3)cs2)ccc1OCC(=O)N1CCOCC1", "z-score": 0.392},
      {"smiles": "O=C(Nc1ccccc1C(F)(F)F)N1CCC(n2c(=O)[nH]c3ccccc32)CC1", "z-score": 0.115},
      {"smiles": "c1ccc2c(c1)ccc1nnc(SCc3ccc4c(c3)OCCO4)n12", "z-score": -0.397},
      {"smiles": "N#Cc1nc(COc2ccc(Cl)cc2)oc1NCc1ccc2c(c1)OCO2", "z-score": -0.0603},
      {"smiles": "CCOC(=O)c1ccc2[nH]c(C)c(C)c2c1", "z-score": 0.637},
      {"smiles": "Cc1ccsc1-c1n[nH]c(=S)n1C1CCCCC1", "z-score": 0.261},
      {"smiles": "CN(NC(=O)c1ccc(Cl)cc1)c1cccc(Cl)n1", "z-score": -0.0482},
      {"smiles": "O=C(Nc1cccc(Cl)c1)N(Cc1nc2ccccc2c(=O)[nH]1)C1CCCC1", "z-score": -0.529},
      {"smiles": "Oc1c(C(c2ccco2)N2CCN(C(c3ccccc3)c3ccccc3)CC2)sc2ncnn12", "note": "(centres undefined)", "z-score": -0.33},
      {"smiles": "COc1ccc(S(=O)(=O)NC(C)C(=O)Nc2cccc(C(C)=O)c2)cc1", "note": "(centres undefined)", "z-score": 0.4},
      {"smiles": "Cc1ccc(CN2CCc3c(OCC(=O)Nc4cccc(C)c4C)cccc3C2=O)cc1", "z-score": -0.0788},
      {"smiles": "Cc1c(C(=O)O)oc2c1/C(=N\\O)CC(C)(C)C2", "z-score": -0.491},
      {"smiles": "CN1C(=O)/C(=C/c2ccccc2OCc2ccc(F)cc2)N(C)C1=S", "z-score": -0.221},
      {"smiles": "Cc1ccc(C(c2nnnn2Cc2ccccc2)N2CCN(Cc3ccccc3)CC2)cc1", "note": "(centres undefined)", "z-score": -0.168},
      {"smiles": "CNC(=S)NNC(=O)COc1cccc(C)c1C", "z-score": 0.00116},
      {"smiles": "O=S(=O)(c1cc(-c2nc3ccccc3s2)ccc1Cl)N1CCOCC1", "z-score": 0.245},
      {"smiles": "CCCCC(=O)Nc1sc2c(c1C(=O)OCC)CCC(C=O)=C2Cl", "z-score": -0.1},
      {"smiles": "COc1ccc(NC(=O)NC(C)(C(F)(F)F)C(F)(F)F)cc1", "z-score": 1.63},
      {"smiles": "O=C(C1CCCN1S(=O)(=O)c1ccc(Cl)cc1)N1CCOCC1", "note": "(centres undefined)", "z-score": -0.0923},
      {"smiles": "O=C(CSc1nnc(-c2ccccc2)n1-c1ccccc1)c1ccc[nH]1", "z-score": -0.464},
      {"smiles": "O=C(Oc1ccc2ccccc2c1)c1cncc(Br)c1", "z-score": -0.00379},
      {"smiles": "Cc1cccc(Oc2cnn(C(C)(C)C)c(=O)c2Cl)c1", "z-score": -1.25},
      {"smiles": "CCN(CC)S(=O)(=O)c1ccc(Cl)c(C(=O)Oc2cccc(-c3cnc4ccccc4n3)c2)c1", "z-score": -0.179},
      {"smiles": "N#CC1=C(N)NC(SCc2ccc(F)cc2)=C(C#N)C12CCCCC2", "z-score": -0.126},
      {"smiles": "C/C(=N/Nc1nc(-c2ccccc2)cc(-c2ccc(F)cc2)n1)c1cccc(N)c1", "z-score": -0.225},
      {"smiles": "COc1ccc(C(=O)Nc2ccc(N3CCCCC3)cc2)cc1Br", "z-score": -0.00817},
      {"smiles": "CC(C)NC(=O)CC1OC(=O)c2ccccc21", "note": "(centres undefined)", "z-score": 1.29},
      {"smiles": "FC(F)(F)c1ccc(/C=N/N2CCN(Cc3ccccc3)CC2)cc1", "z-score": -0.332},
      {"smiles": "CC(C)CCNC(=O)CSc1nc2ccccc2c(=O)[nH]1", "z-score": -0.524},
      {"smiles": "O=C(COc1ccc([N+](=O)[O-])cc1)N/N=C/c1ccccn1", "z-score": -0.148},
      {"smiles": "COc1ccc(NC(=O)CSc2nc(N)c(C(=O)Nc3ccc(N(C)C)cc3)s2)cc1", "z-score": -0.404},
      {"smiles": "CCOc1ccc(C2=Cc3cc(OC)c(OC)cc3C(=C(Cl)Cl)O2)cc1", "z-score": 0.236},
      {"smiles": "Cc1cc(C(=O)NCCCN2CCN(C3CCCCC3)CC2)n(-c2ccccc2)n1", "z-score": -0.136},
      {"smiles": "Cc1nc(-c2cccc(NC(=O)c3cccs3)c2)cs1", "z-score": -1.67},
      {"smiles": "Cc1ccc(NC(=S)NC(NC(=O)c2ccccc2C)C(Cl)(Cl)Cl)c(C)c1", "note": "(centres undefined)", "z-score": -0.151},
      {"smiles": "O=C(CSc1ncnc2c1oc1ccccc12)N1CCCc2ccccc21", "z-score": -0.5}
    ]}
  ]
}
